Measurements reported in PubChem BioAssay AID624296 (National Center for Advancing Translational Sciences (NCATS), 2012).
Among all 350,000 compounds or so, about 9,900 (2.8%) were called active. The inconclusive results got no clear call from the source; some entries with a clear call stand among them for comparison. Calls come from the whole dose curve; as a rule, active = well fitted activation curve with a large enough effect; inconclusive = small, poorly fitted or top-dose-only effect; inactive = no such curve, though single readings can be large or run the other way. No potency is given beside an inconclusive call; the fits are too rough.
Potency is the fitted concentration of half-maximal effect; tags give direction and shape of the fitted curve.

Experiment: A quantitative high throughput screen for small molecules that induce DNA re-replication in MCF 10a normal breast cells. For activity, positive = re-replication: % of control where 0% means no effect. Note: nearly all actives have a fitted effect of over 50% in size.
Conditions: MCF 10A DNA re-replication, Hoechst nuclear intensity, 48 h; activity, positive = re-replication: at 46.1 µM (top of the series)
For `CCOC(=O)c1ccc(S(=O)(=O)N2CCN(CC3CC=CCC3)CC2)cc1` (stereo not drawn), the Potency was inconclusive [activator, full curve, poor fit]. For `COC(=O)CNC(=O)CSc1nc2sccc2c(=O)n1-c1ccccc1`, the “activity, positive = re-replication” value was inactive: 3.01%. With `O=C(O)c1cc(NN=C2c3ccccc3-c3ccccc32)ccc1Cl` the Potency was inconclusive [activator, single point]. In the case of `O=C1CCCC2=C1C(c1ccc(OS(=O)(=O)c3ccc(Cl)cc3)cc1)C1=C(CCCC1=O)O2`, the Potency is reported as inconclusive [activator, single point]. For `Cc1ccccc1Cn1c2ccccc2c2cnn(CC(=O)NCc3ccco3)c(=O)c21`, the Potency was inconclusive [activator, single point]. In the case of `CC(=O)NS(=O)(=O)c1cccnc1Nc1ccc(Cl)c(Cl)c1`, the Potency is reported as inconclusive [activator, partial curve, poor fit]. With `O=C(c1ccc(C(F)(F)F)cc1)N1CCC(=O)N(C(COCc2ccc(C(F)(F)F)cc2)Cc2ccccc2)CC1` (stereo not drawn) the Potency was inconclusive [activator, partial curve, poor fit]. For `NS(=O)(=O)c1ccc(NC(=O)CSc2nc3ccccc3n2-c2ccccc2)cc1`, the Potency was inconclusive [activator, single point]. For `CC(C)C(=O)Nc1ccc(-c2nc3cccnc3o2)cc1`, the Potency was inconclusive [activator, partial curve, poor fit]. With `O=[N+]([O-])c1ccc(O)c(-c2nn[nH]n2)c1` the “activity, positive = re-replication” value was inactive: 3.21%. In the case of `CCn1c(CCl)nc2cc(S(=O)(=O)N3CCOCC3)ccc21`, the Potency is reported as inconclusive [activator, single point]. In the case of `CCN(CC)c1nc(OCCNC(=O)Nc2ccccc2)nc(N(CC)CC)n1`, the Potency is reported as inconclusive [activator, single point]. With `CCOc1ccc(C(=S)N2CCCC2)c(OCC)c1` the “activity, positive = re-replication” value was inactive: 1.05%. For `Cc1ccc(C2SCCN2C(=O)c2ccc([N+](=O)[O-])cc2)cc1` (stereo not drawn), the Potency was inconclusive [activator, single point]. For `Clc1cccc(Cl)c1Cn1cnc2c(NCc3ccco3)ncnc21`, the Potency was active: 15.8 µM. With `COC(=O)CC1(C(=O)OC)Oc2ccccc2C(=O)N1c1ccc(F)cc1F` (stereo not drawn) the “activity, positive = re-replication” value was inactive: -0.0692%. In the case of `O=C(CCCn1c(=S)[nH]c2ccc(Br)cc2c1=O)N1CCN(c2ccccn2)CC1`, the Potency is reported as inconclusive [activator, single point]. For `Nc1ccccc1C(=O)Nc1cccc(C(=O)O)c1`, the Potency was inconclusive [activator, single point]. In the case of `CCC(C)c1ccc(C(C)NC(=S)NC2CCCCC2)cc1` (stereo not drawn), the Potency is reported as inconclusive [activator, full curve]. In the case of `Cc1nc(-c2ccc(Cl)cc2)sc1C1(C)CC(c2ccccc2Br)=NO1` (stereo not drawn), the Potency is reported as inconclusive [activator, single point]. With `N#Cc1nc(-c2ccc(Cl)cc2)oc1N1CCCCC1` the Potency was inconclusive [activator, single point]. In the case of `Cc1cccc(N2CCN(C(=O)c3ccc(NS(=O)(=O)c4ccc5[nH]c(=O)[nH]c5c4)cc3)CC2)c1C`, the Potency is reported as inconclusive [activator, single point]. With `CC[C@@H](C)[C@@H]1CN([C@@H](CN2CCC[C@H]2CN2C(N)=NC[C@H]2CC(C)C)C(C)C)C(=N)N1CCc1ccc(Cl)c(Cl)c1` the Potency was inconclusive [activator, partial curve, poor fit]. With `COCCn1c(-c2ccccc2)cnc1SCC(=O)Nc1cccc2ccccc12` the Potency was inconclusive [activator, full curve, poor fit]. For `O=C(NC(=S)Nc1ccc2oc(-c3cccnc3)nc2c1)c1cccc(Cl)c1`, the Potency was inconclusive [activator, full curve]. In the case of `O=C(Nc1ccc2c(c1)OCCO2)c1cccc(Cl)c1Cl`, the “activity, positive = re-replication” value is reported as inactive: 3.45%. In the case of `CCc1ccc(OCC(=O)NC(NC(=S)Nc2ccccc2C)C(Cl)(Cl)Cl)cc1` (stereo not drawn), the Potency is reported as active: 18.4 µM. For `CC(=O)c1ccc(NC(=O)CCc2nc3sc4c(c3c(=O)[nH]2)CCCC4)cc1`, the Potency was inconclusive [activator, single point]. In the case of `COc1ccc(C2CC(c3ccc4ccccc4c3)=NN2C(=O)CN2C(=O)CCC2=O)cc1` (stereo not drawn), the “activity, positive = re-replication” value is reported as inactive: 6.54%. For `Cc1nc(/C=C/c2ccccc2)[nH]c(=O)c1-c1ccccc1`, the Potency was inconclusive [activator, partial curve, poor fit]. For `COc1cc(OC)cc(C(=O)Nc2nc(CC(=O)NCc3ccc(F)cc3)cs2)c1`, the Potency was inconclusive [activator, partial curve, poor fit]. For `COc1ccccc1C(=O)NNC(=O)c1ccc(Br)o1`, the “activity, positive = re-replication” value was inactive: 0.894%. For `Cc1cc(C)cc(NC(=O)N2CCCN(Cc3c(F)cccc3Cl)CC2)c1`, the Potency was inconclusive [activator, partial curve]. In the case of `COCCOC(=O)C1=C(C)NC(=O)NC1c1ccc(-c2cc(Cl)ccc2Cl)o1` (stereo not drawn), the Potency is reported as inconclusive [activator, single point]. In the case of `O=C1NC2(CCCCCC2)C(=O)N1Cc1ccc(Cl)cc1Cl`, the “activity, positive = re-replication” value is reported as inactive: 9.57%. In the case of `c1ccc(CN2CCN(CCCNc3ccc4nnc(-c5ccccc5)n4n3)CC2)cc1`, the “activity, positive = re-replication” value is reported as inactive: 8.18%. With `CC(NC(=O)CCC(=O)Nc1ccccc1O)c1ccccc1` (stereo not drawn) the Potency was inconclusive [activator, partial curve, poor fit]. With `COc1ccc(/C=C/C(=O)NC(=S)NNC(=O)c2cnccn2)cc1` the “activity, positive = re-replication” value was inactive: -4.67%. With `COc1cc(CNCCN2CCOCC2)ccc1OCc1cccc(Cl)c1` the Potency was inconclusive [activator, single point]. In the case of `O=C(NC(=S)Nc1ccc(CN2CCCCC2)cc1)c1ccco1`, the Potency is reported as inconclusive [activator, single point]. For `CCOC(=O)N1CCN(Cc2ccc3c(c2)OCO3)CC1`, the Potency was inconclusive [activator, single point]. In the case of `Cc1cc(C)n(CC(=O)N/N=C/c2ccccn2)n1`, the “activity, positive = re-replication” value is reported as inactive: 3.27%. In the case of `COc1ccc(COc2cc(-c3cccc(OC)c3)nc3ccc(NC(=O)C(C)C)cc23)cc1`, the Potency is reported as inconclusive [activator, full curve, poor fit]. With `Fc1ccccc1/C=C1\CCCC2=C1NC(=S)NC2c1ccccc1F` (stereo not drawn) the Potency was inconclusive [activator, partial curve, poor fit]. In the case of `CC1CC(C)CN(CCOc2cccc3ccccc23)C1` (stereo not drawn), the Potency is reported as inconclusive [activator, single point]. In the case of `O=C(NCCC1=CCCCC1)c1ccc(F)cc1`, the “activity, positive = re-replication” value is reported as inactive: 2.3%. In the case of `CCN(C(=O)CN1CCN(C)CC1)c1c(N)n(Cc2ccccc2)c(=O)[nH]c1=O`, the Potency is reported as inconclusive [activator, single point]. In the case of `CCC(=O)Nc1ccc(NC(=S)NC(=O)c2cc3ccccc3o2)cc1`, the Potency is reported as inconclusive [activator, single point]. In the case of `CCOC(=O)c1cnc(SCc2ccccc2)nc1N`, the “activity, positive = re-replication” value is reported as inactive: -12.2%. With `COc1ccccc1NC(=O)COC(=O)C1CC(=O)N(c2ccc3c(c2)OCCO3)C1` (stereo not drawn) the Potency was inconclusive [activator, single point]. With `COCCCNC(=O)C[C@H]1C[C@H](C(=O)N2CCCCC2)[C@@]2(C)c3[nH]c4cc(-c5ccco5)ccc4c3CCN2C1=O` the Potency was inconclusive [activator, partial curve, poor fit]. For `N#Cc1ccc(S(=O)(=O)NCC(=O)OCC(=O)N2CCCC2=O)cc1`, the “activity, positive = re-replication” value was inactive: 0.215%. In the case of `Fc1ccc(Cn2c(SCc3ccc(F)c(F)c3)nnc2C(F)(F)F)cc1`, the Potency is reported as inconclusive [activator, single point]. With `COCCCNc1nc2c(c(=O)[nH]c(=O)n2C)n1CCCc1ccccc1` the Potency was inconclusive [activator, partial curve, poor fit]. In the case of `COc1ccc(-c2noc(C3CCCN(C(=O)c4cccc(F)c4)C3)n2)cc1` (stereo not drawn), the “activity, positive = re-replication” value is reported as inactive: -1.13%. For `COc1cc(C(=O)COC(=O)C2CC2(Cl)Cl)cc(OC)c1OC` (stereo not drawn), the “activity, positive = re-replication” value was inactive: -2.49%. For `Fc1ccc(F)c(C2=NNC(=Nc3ccccc3F)SC2)c1`, the Potency was active: 20.6 µM. With `N#Cc1ccc2ccn(CC(=O)NCc3ccccc3)c2c1` the Potency was inconclusive [activator, single point]. In the case of `Cn1c(=O)c2sccc2n(Cc2cccc(Br)c2)c1=O`, the “activity, positive = re-replication” value is reported as inactive: 18.8%. For `COc1ccc(/C=C(\C#N)C(=O)C(C)(C)n2cncn2)cc1`, the “activity, positive = re-replication” value was inactive: -17%. For `CCc1cccc(OCC(=O)Nc2ccccc2N2CCCC2)c1`, the Potency was inconclusive [activator, single point]. With `Nc1nc(N)nc(-c2cccc(Cl)c2Cl)n1` the “activity, positive = re-replication” value was inactive: 13.7%. With `CCOCCCn1c(=S)[nH]c2cc(C(=O)NCC(OC)OC)ccc2c1=O` the “activity, positive = re-replication” value was inactive: 2.06%. With `C[C@]12C=CC(=O)C=C1CC[C@@H]1[C@@H]2[C@@H](O)C[C@@]2(C)[C@H]1CC[C@]2(O)C(=O)COC(=O)CCC(=O)NCCc1ccc(O)cc1` the “activity, positive = re-replication” value was inactive: -0.901%. For `CN1CCN(c2ccc(NC(=O)CSc3nnnn3-c3ccccc3F)cc2)CC1`, the Potency was inconclusive [activator, full curve, poor fit]. With `O=C(COC(=O)C1C2CC3OC(=O)C1C3C2)Nc1ccc(Br)cc1` (stereo not drawn) the “activity, positive = re-replication” value was inactive: 16.8%. In the case of `Cc1onc(-c2ccc(Cl)cc2Cl)c1C(=O)/C=C/N(C)C`, the Potency is reported as inconclusive [activator, single point]. With `O=C(COc1ccc2c(-c3ccccc3)cc(=O)oc2c1)N[C@@H](Cc1c[nH]c2ccc(O)cc12)C(=O)O` the Potency was inconclusive [activator, full curve, poor fit].
